Assay results taken from PubChem BioAssay AID1745845 (National Center for Advancing Translational Sciences (NCATS), 2022).
Screen size: about 360,000 compounds; about 2,600 (0.72%) were called active. This list was built around the results that the source calls inconclusive (neither active nor inactive); the mix of calls is not that of the screen. Calls come from the whole dose curve; as a rule, active = well fitted inhibition curve with a large enough effect; inconclusive = small, poorly fitted or top-dose-only effect; inactive = no such curve, though single readings can be large or run the other way. Where the call is inconclusive, the potency comes from a doubtful curve fit.

experiment: Primary qHTS for Inhibitors of ATXN expression; conditions: HEK-293 ATXN2-luciferase reporter, luminescence, 24 h; activity change, negative = inhibition: at 57 µM (top of the series); note: nearly all actives have a fitted effect of over 55% in size
In short: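 ATXN2-luciferase reporter cells (luciferase flanked by upstream and downstream ATXN2 gene portions) were treated 24 h at 37 °C with compounds at up to 57 uM. SteadyGlo luminescence gave expression; GF-AFC fluorescence gave viability.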
% is set by controls: 0 for no effect and ±100 for the full control effect; potency is the fitted concentration of half-maximal effect; tags give direction and shape of the fitted curve.

Row | SMILES | Potency | activity change, negative = inhibition
1 | COC(=O)c1ccccc1Nc1ccnc(Cl)n1 | inactive | –
2 | CCc1nc2c(OCc3ccc(C(F)(F)F)cc3)cccn2c1N(C)C(=O)c1ccc(OC)cc1 | inconclusive: 28.2 µM [inhibitor, single point] | –
3 | O=C(c1cccc(COc2ccc(Cl)cc2Cl)c1)N1CCN(c2ccccn2)CC1 | inconclusive: 20 µM [inhibitor, single point] | –
4 | CCN(CC)CCCNC(=O)c1ccc2c(c1)N(Cc1c(F)cccc1Cl)C(=O)c1ccccc1S2 | active: 20 µM | –
5 | CCc1nc2ccc(C(=O)NCc3ccc(OC)cc3)cn2c1N(CC)Cc1cccc(Br)c1 | inconclusive: 35.5 µM [inhibitor, single point] | –
6 | CCOc1cc(NCc2ccccc2)c2ncn(C(C)C)c2c1 | inconclusive: 31.6 µM [inhibitor, single point] | –
7 | Cc1cccc(C(=O)NCCNC(=O)c2cccc(C)c2)c1 | inconclusive: 35.5 µM [inhibitor, single point] | –
8 | Cc1ccc(S(=O)(=O)Nc2cc(Cl)ccc2C(=O)Nc2nc(-c3ccccc3)cs2)cc1 | inconclusive: 21.7 µM [inhibitor, partial curve] | –
9 | COc1ccc(NC(=O)Cn2nnc(-c3ccccc3NC(=O)c3cccs3)n2)cc1 | inconclusive: 21.2 µM [inhibitor, single point] | –
10 | CC(=O)c1cccc(NCc2ccccc2-c2nnc(-c3ccccc3)o2)c1 | inactive | –
11 | COc1cc(/C=N/NC(=S)NC2CC3CC2C2C=CCC32)ccc1O (stereo unspecified) | inactive | –
12 | CCCCN(C)C(=O)C1CCN(Cc2ccc(OCc3ccccc3)cc2)CC1 | inactive | –
13 | O=c1[nH]c(=O)n(Cc2ccccc2)c2nc(-c3ccc(Oc4ccc(F)cc4)c([N+](=O)[O-])c3)n(CCO)c12 | inconclusive: 31.6 µM [inhibitor, single point] | –
14 | O=[N+]([O-])c1cc(-c2nc(-c3ccccc3)no2)ccc1N1CCCC1 | inconclusive: 10 µM [inhibitor, partial curve] | –
15 | CC(C)[C@H](NC(=O)C1CCCC1)c1nc2ccccc2[nH]1 | inconclusive: 0.398 µM [inhibitor, full curve, poor fit] | –
16 | Cc1ccc(/C=[N+](\[O-])c2ccc(N(C)C)cc2)c2nsnc12 | inconclusive: 37.7 µM [inhibitor, single point] | –
17 | Cc1ccc(-n2ncc3c(N4CCC5(CC4)OCCO5)ncnc32)c(C)c1 | inconclusive: 35.5 µM [inhibitor, partial curve, poor fit] | –
18 | O=C(CSc1nc(-c2ccccc2)[nH]c1-c1ccccc1)Nc1ccc2c(c1)OCO2 | active: 20 µM | –
19 | COc1ccc(CNc2ncnc3c2[nH]c2ccccc23)cc1 | inconclusive: 5.62 µM [inhibitor, partial curve, poor fit] | –
20 | CC(C)(C)C1CCc2c(sc(NC(=O)Cn3nnc(-c4cccc(C(F)(F)F)c4)n3)c2C#N)C1 (stereo unspecified) | inactive | –
21 | CC(C)(C)OC(=O)[C@H](Cc1ccccc1)NC(=O)c1nc[nH]c1C(=O)N[C@@H](CCCCN)C(=O)OC(C)(C)C | inconclusive: 31.6 µM [inhibitor, partial curve, poor fit] | –
22 | O=C1c2cccc3cc([N+](=O)[O-])cc(c23)C(=O)N1CCN1CCCC1 | – | inconclusive: -71.5% [inhibitor]

Row | SMILES | Potency | activity change, negative = inhibition
23 | Cc1ccc(C(=O)Nc2ccc3c(c2)N(C)C(=O)c2ccccc2S3)cc1 | inconclusive: 10 µM [inhibitor, partial curve] | –
24 | CCC1CCCCN1CCCNC(=O)c1ccc2c(c1)N(Cc1ccccc1F)C(=O)c1ccccc1S2(=O)=O (stereo unspecified) | inconclusive: 22.4 µM [inhibitor, partial curve] | –
25 | N#CC1C(C#N)N2CCCN2C1c1ccc(Br)cc1 (stereo unspecified) | inconclusive: 23.8 µM [inhibitor, partial curve, poor fit] | –
26 | O=C(Nc1ccc([N+](=O)[O-])cc1)Nc1ccc([N+](=O)[O-])cc1 | inactive | –
27 | CC(=NNC(=S)N1CCCCC1)c1cccc(C)n1 | inconclusive: 0.141 µM [inhibitor, full curve, poor fit] | –
28 | CC1CCN(C(=O)CSc2nc(-c3ccc(C(C)C)cc3)no2)CC1 | inactive | –
29 | CCCCCCCCCCCC1=C(O)C(=O)C=C(O)C1=O | inconclusive: 43.2 µM [inhibitor, single point] | –
30 | CN(C)CCCn1c(SCC(=O)N2c3ccccc3Sc3ccccc32)nc2ccccc2c1=O | active: 28.2 µM | –
31 | CN(C)CC1CC/C(=C\c2ccc(O)cc2)C1=O (stereo unspecified) | inconclusive: 39.8 µM [inhibitor, single point] | –
32 | COc1ccc(C(=O)Nc2nnc(SCC(=O)NCc3ccco3)s2)c(OC)c1 | inconclusive: 11.2 µM [inhibitor, single point] | –
33 | COc1cc2ncc(S(=O)(=O)c3ccccc3)c(N3CCCC(C)C3)c2cc1OC (stereo unspecified) | inconclusive: 37.7 µM [inhibitor, single point] | –
34 | Cc1ccc(C)c(NC(=O)CCc2nc(-c3ccc(C(C)(C)C)cc3)no2)c1 | inconclusive: 39.8 µM [inhibitor, single point] | –
35 | Cc1nc(Oc2ccccc2C)c2oc3ccccc3c2n1 | inactive | –
36 | NC(=O)NC1NC(=O)NC1=O (stereo unspecified) | inactive | –
37 | CC1CCCCN1C(=O)Cn1c(=O)oc2cc(S(=O)(=O)N3CCCC3)ccc21 (stereo unspecified) | inactive | –
38 | O=C(CSc1nnc(Cc2ccccc2)o1)c1cc(F)ccc1F | inactive | –
39 | Cc1ccc(-c2[nH]nc(N)c2N=Nc2ccccc2C)cc1 | inactive | –
40 | O=C(CSc1nc2ccc(NC(=O)c3ccccc3C(=O)O)cc2s1)Nc1ccc(F)c([N+](=O)[O-])c1 | inactive | –
41 | O=C(CCCCCn1c(=S)[nH]c2cc3c(cc2c1=O)OCO3)N1CCN(c2ccc(F)cc2)CC1 | inconclusive: 39.8 µM [inhibitor, single point] | –
42 | COc1ccc(C(=O)Nc2nnc(SCC(=O)NC3CCCC3)s2)c(OC)c1 | inconclusive: 14.1 µM [inhibitor, single point] | –
43 | Nc1c(C(=O)NCc2ccc(F)cc2)c2nc3ccccc3nc2n1CCCN1CCOCC1 | inconclusive: 39.8 µM [inhibitor, single point] | –
44 | O=C(N/N=C/C=C/c1cccc([N+](=O)[O-])c1)c1ccncc1 | inactive | –

Row | SMILES | Potency | activity change, negative = inhibition
45 | COc1cc(/C=C2\COC/C(=C\c3ccc(O)c(OC)c3)C2=O)ccc1O | inconclusive: 39.8 µM [inhibitor, single point] | –
46 | Cc1ccc(Oc2nc3c(c(=O)n(Cc4ccccc4)c(=O)n3C)n2C)cc1C | inactive | –
47 | COc1cccc(-c2ccnc3c(-c4ccc(F)cc4)c(C)nn23)c1 | inactive | –
48 | CCCCCCn1cc(CN2CC(N3CCN(Cc4cccc(C)c4)CC3)CS2(=O)=O)nn1 (stereo unspecified) | inactive | –
49 | CCN(C(=O)C1CCC(CNS(=O)(=O)c2cccc3nsnc23)CC1)c1ccccc1 (stereo unspecified) | inconclusive: 25.1 µM [inhibitor, partial curve, poor fit] | –
50 | C[C@@H]1CN([C@H](C)CO)S(=O)(=O)c2ccc(C#Cc3ccccc3)cc2O[C@@H]1CN(C)C(=O)CN(C)C | inactive | –
51 | CCN(CC)S(=O)(=O)c1cccc(C(=O)/C=C2/N(C)c3ccccc3C2(C)C)c1 | inconclusive: 22.4 µM [inhibitor, single point] | –
52 | Cc1ccc(S(=O)(=O)N(CC(O)Cn2c3ccccc3c3ccccc32)c2cccc(C(=O)N(C)C)c2)cc1 (stereo unspecified) | inconclusive: 20 µM [inhibitor, partial curve, poor fit] | –
53 | Cc1cccc(NC(=S)N(CCCN2CCOCC2)Cc2cn(C)c3ccccc23)c1 | inconclusive: 12.6 µM [inhibitor, partial curve, poor fit] | –
54 | C=C1C(=O)OC2C=C(CO)CCC=C(CO)CC(OC(=O)C(C)C)C12 (stereo unspecified) | inconclusive: 37.7 µM [inhibitor, single point] | –
55 | COc1ccc(CCNC(=O)COc2ccc(N(C)S(=O)(=O)c3ccc(Cl)cc3)cc2)cc1 | inconclusive: 13.4 µM [inhibitor, partial curve, poor fit] | –
56 | Cc1cc(SCC(=O)OC/C(O)=C(\C#N)c2nc3ccccc3[nH]2)c(C)cc1Br | inconclusive: 37.7 µM [inhibitor, single point] | –
57 | CCc1ccc2[nH]c(=O)c(C(c3nnnn3CC3CCCO3)N3CCCc4ccccc43)cc2c1 (stereo unspecified) | inactive | –
58 | COc1ccc(OC)c(N2CC(O)(c3ccccc3)[N+]3=C2SCCC3)c1 (stereo unspecified) | inactive | –
59 | O=C(NC1CCCC1)c1ccc(CSc2nc3cccnc3n2Cc2ccccc2F)cc1 | inconclusive: 31.6 µM [inhibitor, single point] | –
60 | CCOC(=O)Cn1c(=NC(=O)c2cc(-c3cccs3)nc3ccccc23)sc2cc(S(N)(=O)=O)ccc21 | inconclusive: 3.55 µM [inhibitor, partial curve, poor fit] | –
61 | OCCN1CCN(C(=S)c2ccc(-c3ccccc3)cc2)CC1 | inconclusive: 31.6 µM [inhibitor, partial curve, poor fit] | –
62 | Cc1cc(C)nc(SCc2ccc(C(=O)NNC(=O)Nc3cccc(Cl)c3)cc2)n1 | inconclusive: 28.2 µM [inhibitor, single point] | –
63 | CC(=O)c1ccc(Nc2nc(C(N)Cc3ccc(Cl)cc3)cs2)cc1 (stereo unspecified) | inconclusive: 31.6 µM [inhibitor, partial curve, poor fit] | –
64 | Cc1ccnc2c1ccc1cccnc12 | inconclusive: 2.51 µM [inhibitor, single point] | –
65 | CCCc1c(-c2ccccc2Br)ncn1Cc1ccccc1OC | inconclusive: 39.8 µM [inhibitor, single point] | –
66 | COc1ccc(C)cc1NC(=O)c1sc2ncnc(N3CCN(c4ccccn4)CC3)c2c1C | inconclusive: 13.4 µM [inhibitor, partial curve, poor fit] | –
